The results in this text go back to article PMC4242493.

The other results are listed elsewhere or left out. The list includes weakly bound sequences.

In the test the target is MaxL homodimer (UniProt P61244). Nature of the test: universal protein-binding microarray (PBM). As to conditions: PBS-based mixture, 10 nM His-tagged protein dimer, 2% milk, 200 ng/uL BSA, 50 ng/uL salmon testes DNA, 0.02% TX-100; detection with Alexa 488 anti-His …; high values mean tight binding; most listed sequences are background and not binding sites; double strand, one strand shown.
UniProt P61244, sequence (P61244 whole entry): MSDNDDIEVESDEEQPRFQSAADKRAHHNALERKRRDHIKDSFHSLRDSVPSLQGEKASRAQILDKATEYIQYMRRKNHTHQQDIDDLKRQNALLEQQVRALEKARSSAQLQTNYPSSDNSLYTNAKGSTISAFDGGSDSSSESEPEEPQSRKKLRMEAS
ACAGGTGC: the binding signal (normalized occupancy) was determined as 0.0832.

In the case of CCACTTTA, the binding signal (normalized occupancy) was 0.074.

For the sequence CATCCAAC, the binding signal (normalized occupancy) is 0.0795.

In the case of CTACAAGA, the binding signal (normalized occupancy) stood at 0.0752.

Regarding CGGTAAAA, the binding signal (normalized occupancy) is 0.0692.

Turning to CCACTAAC, the binding signal (normalized occupancy) came to 0.0749.

Consider CGCCCCTC, for which the binding signal (normalized occupancy) is 0.0723.

Turning to CACTAGTC, the binding signal (normalized occupancy) came to 0.0808.

Turning to CAGATTGA, the binding signal (normalized occupancy) turned out to be 0.0758.

Take CTTAATCA: the binding signal (normalized occupancy) worked out at 0.073.

For AACCTGAT, the binding signal (normalized occupancy) was 0.0838.

In the case of ACTTCTCT, the binding signal (normalized occupancy) came to 0.0761.

For ACGATCCC, the binding signal (normalized occupancy) is 0.0772.

As for CCAATCAA, the binding signal (normalized occupancy) came to 0.0793.

In the case of ACTTACAC, the binding signal (normalized occupancy) worked out at 0.078.

Turning to ACGCAGCG, the binding signal (normalized occupancy) was 0.0707.

As to GTGGTGAA, the binding signal (normalized occupancy) is 0.0794.

Consider ACTTCAGA, for which the binding signal (normalized occupancy) was 0.071.

As for AGAAATCT, the binding signal (normalized occupancy) is 0.0721.

On to ATTACACC, for which the binding signal (normalized occupancy) was found to be 0.0814.

As to GGAACTCA, the binding signal (normalized occupancy) worked out at 0.0728.

Regarding CGGATGTC, the binding signal (normalized occupancy) was 0.0765.

For the sequence CAACAACC, the binding signal (normalized occupancy) was 0.0724.

AACCCGTA: the binding signal (normalized occupancy) came out at 0.0739.

Consider CGACGCAA, for which the binding signal (normalized occupancy) came out at 0.0698.

Regarding TATATTAA, the binding signal (normalized occupancy) is 0.0809.

CTAAAGGC: the binding signal (normalized occupancy) turned out to be 0.0681.

For the sequence GGCACTGA, the binding signal (normalized occupancy) turned out to be 0.0693.

With GGGTTCAA, the binding signal (normalized occupancy) came to 0.076.

As for AGGCCACT, the binding signal (normalized occupancy) worked out at 0.0708.

Take ATCACGAT: the binding signal (normalized occupancy) was determined as 0.0804.

As to CAAAATGC, the binding signal (normalized occupancy) worked out at 0.0757.

Take CCCACATA: the binding signal (normalized occupancy) is 0.0855.

For ACGCCGCA, the binding signal (normalized occupancy) amounted to 0.0784.

On to CGTAATGC, for which the binding signal (normalized occupancy) is 0.0794.

With CCGATTTA, the binding signal (normalized occupancy) was found to be 0.068.

CTAAAACA: the binding signal (normalized occupancy) is 0.0782.

Regarding GCTAAAGC, the binding signal (normalized occupancy) is 0.0687.

Consider ATAGGAAC, for which the binding signal (normalized occupancy) was found to be 0.0762.

As to GGGAGCCA, the binding signal (normalized occupancy) worked out at 0.0735.

AACGGACG: the binding signal (normalized occupancy) was found to be 0.0644.

For GTCAGACA, the binding signal (normalized occupancy) was determined as 0.0729.

Regarding AGAACGGG, the binding signal (normalized occupancy) was determined as 0.0711.

ATAGTGAA: the binding signal (normalized occupancy) was determined as 0.0751.

In the case of CCTTTAAG, the binding signal (normalized occupancy) turned out to be 0.0716.

Regarding ACACGGGA, the binding signal (normalized occupancy) is 0.0922.

For the sequence ACTATCCA, the binding signal (normalized occupancy) worked out at 0.0782.

Turning to GTGCTATA, the binding signal (normalized occupancy) turned out to be 0.0793.

For the sequence AAGACGCC, the binding signal (normalized occupancy) stood at 0.0703.

With CGGACCCG, the binding signal (normalized occupancy) is 0.0644.

As to ACAAACTG, the binding signal (normalized occupancy) was 0.071.

CGACTGAG: the binding signal (normalized occupancy) came to 0.0648.

As to CGTCGGGA, the binding signal (normalized occupancy) amounted to 0.0732.

As for CCATACTA, the binding signal (normalized occupancy) is 0.0852.

Consider CGGGAGGA, for which the binding signal (normalized occupancy) was 0.0705.

As for ATACTGGA, the binding signal (normalized occupancy) turned out to be 0.0785.

As for GGCCGGCA, the binding signal (normalized occupancy) is 0.0744.

As for ATCCTCCG, the binding signal (normalized occupancy) stood at 0.0769.

On to ACCGTGTG, for which the binding signal (normalized occupancy) was found to be 0.0873.

Consider ATTACTCG, for which the binding signal (normalized occupancy) is 0.0807.

Consider TGAAAGCA, for which the binding signal (normalized occupancy) was 0.0778.

Take AGTGTACC: the binding signal (normalized occupancy) turned out to be 0.0756.

Take GTAGCGAA: the binding signal (normalized occupancy) was determined as 0.074.

Consider GAACGCGA, for which the binding signal (normalized occupancy) was determined as 0.0778.

As to GACCCGTC, the binding signal (normalized occupancy) came out at 0.0672.

Take ACTTCGGG: the binding signal (normalized occupancy) came out at 0.0726.

CGCGCACG: the binding signal (normalized occupancy) was 0.0959.

Turning to ACCAATCG, the binding signal (normalized occupancy) was determined as 0.0812.

AACACGCA: the binding signal (normalized occupancy) was found to be 0.0915.

Turning to AAGCCTGA, the binding signal (normalized occupancy) is 0.0681.

For ATATACTC, the binding signal (normalized occupancy) turned out to be 0.0842.

As for CTGTTGAC, the binding signal (normalized occupancy) turned out to be 0.0783.

Take ACCTTATC: the binding signal (normalized occupancy) was found to be 0.0772.

For the sequence CGTCTTCA, the binding signal (normalized occupancy) was determined as 0.0763.

Consider CTAAACCC, for which the binding signal (normalized occupancy) was 0.079.

Take CCAATGAG: the binding signal (normalized occupancy) worked out at 0.0767.

Take ATCCTGCG: the binding signal (normalized occupancy) is 0.0672.

Regarding GTTCCGCA, the binding signal (normalized occupancy) came to 0.0719.

As to AGTTAGGC, the binding signal (normalized occupancy) is 0.0691.

On to CCCCAATA, for which the binding signal (normalized occupancy) was 0.0808.

For the sequence TAAAGCCA, the binding signal (normalized occupancy) came out at 0.0762.

In the case of AAGGGCTG, the binding signal (normalized occupancy) was 0.0651.

As to ATCCGGAC, the binding signal (normalized occupancy) was 0.0735.

As for CCTGCGGA, the binding signal (normalized occupancy) was determined as 0.0692.

Take AACCGCAG: the binding signal (normalized occupancy) turned out to be 0.0674.

As to TAGAGGAA, the binding signal (normalized occupancy) came to 0.0715.

With CATGTTGA, the binding signal (normalized occupancy) turned out to be 0.0943.

As for GGAGATCA, the binding signal (normalized occupancy) amounted to 0.0755.

Regarding TGAACTAA, the binding signal (normalized occupancy) worked out at 0.0704.

Regarding ACACGGGG, the binding signal (normalized occupancy) was determined as 0.0917.

As to GGATACGA, the binding signal (normalized occupancy) was determined as 0.0818.

CCTGATGA: the binding signal (normalized occupancy) worked out at 0.0802.

As to CTGTTGGC, the binding signal (normalized occupancy) amounted to 0.0725.

For the sequence ACAGCATC, the binding signal (normalized occupancy) is 0.0767.

Consider AGGCTATC, for which the binding signal (normalized occupancy) was found to be 0.0772.

As for GAGAAGAC, the binding signal (normalized occupancy) was 0.0703.

Consider AGCCTAGG, for which the binding signal (normalized occupancy) stood at 0.0612.

In the case of TAGTCAAA, the binding signal (normalized occupancy) stood at 0.0703.

As to CGGACGTC, the binding signal (normalized occupancy) was 0.068.

Consider GCAAACTA, for which the binding signal (normalized occupancy) came out at 0.0788.

In the case of CGGGAGAC, the binding signal (normalized occupancy) amounted to 0.07.

Consider CACGTTGA, for which the binding signal (normalized occupancy) is 0.115.

GCGCCAGC: the binding signal (normalized occupancy) was found to be 0.0685.

With AGGGGGGA, the binding signal (normalized occupancy) was found to be 0.0821.

For AGCAGTTC, the binding signal (normalized occupancy) came out at 0.0701.

On to AAACGTAG, for which the binding signal (normalized occupancy) came out at 0.0771.

For ACGGCTGC, the binding signal (normalized occupancy) came out at 0.0671.

In the case of ATATAGGA, the binding signal (normalized occupancy) was found to be 0.0892.

As to ACCCGTGC, the binding signal (normalized occupancy) came to 0.088.

For CGATACGA, the binding signal (normalized occupancy) came out at 0.0714.
